The values below come from patent US20220267438A1 (Janssen / Centocor, published 2022).

In assay [1] the target is T1, CD3W200, recombinant CD3εγ heterodimer construct (human, UniProt P07766 22-118; P09693 23-103).
T1 construct: also called human CD3 (SPR antigen for BGCB491)
Nature of the assay: SPR.

Assay [2] has as its target T2, BCMW37 (recombinant human BCMA antigen) (human, UniProt Q02223 1-54, limits assumed).
T2 construct: also called BCMA BCMW37 chain; human BCMA (SPR antigen)
T2 sequence (looked up): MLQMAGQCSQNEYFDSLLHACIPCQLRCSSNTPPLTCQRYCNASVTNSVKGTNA
The experiment in a line: SPR, BCMA binding after pH 3.5 stress.

Assay [3] concerns the target T3, human CD3 (CD3ε of the TCR/CD3 complex) on primary human pan T cells (human, UniProt P07766).
T3 construct: whole, on cells; On T cells CD3ε stands in the whole TCR/CD3 complex
Nature of the assay: flow cytometry, human pan T cells, 1 h 4C. The protocol: (§1) For binding of BGCB463 to human and cynomolgus Pan T cells, three human donors (Hemacare) were selected, quickly thawed, resuspended, and aliquoted into a 96-well plate at 1×10⁶ cells/mL. Cells were then washed, Fc blocked if necessary (Innovex), and stained with viability dye (Invitrogen). BGCB463 and its corresponding isotype (B23B251) were diluted in complete media to an initial concentration of 2 μM and 1:3 serial dilutions in duplicate were performed for a dose-response curve. The cells were incubated with molecules at 4° C. or 37° C. for 1 hour. When necessary, incubation with 90% human serum (Sigma) was also performed as described above.
(§2) First, FACS-based binding for GPRC5D and BCMA binding arms of the trispecific molecule was determined by measuring the effective concentration (EC) range from a dose-response curve using a 4-parameter fit at 37° C. for 1 hr. This was assessed using an H929 suite of cells (WT, GPRC5D-KO, BCMA-KO, and GPRC5D/BCMA KO), and a similar MM.1R suite. Cell based EC₅₀ is approximately 13 nM for WT H929 (FIGS. 2A-2D, Table 7) and 2.4 nM for WT MM.1R (FIGS. 3A-3D, Table 8). […] Next, cell-based EC₅₀ was determined for the CD3-binding Fab arm using purified Pan T cells from three random donors. […] Next, dose responsive binding was assessed at 4° C. to remove any potential biological effects. […]

Assay [4] concerns the target T4, cynomolgus GPRC5D on K562 cells (cynomolgus monkey).
T4 construct: whole, on cells; also called cyno GPRC5D
The experiment in a line: flow cytometry, K562 cells expressing cynomolgus GPRC5D, 1 h 37C. The protocol: FIGS. 9A-E. BGCB463 (circles) or negative control B23B251 (triangles) were all incubated with K562 cells expressing human GPRC5D (FIG. 9A), human BCMA (FIG. 9B), cynomolgus GPRC5D (FIG. 9C) or cynomolgus BCMA (FIG. 9D) for 1 hr at 37° C. at a starting concentration of 2 μM. After secondary detection with AF647-anti-human IgG, the MFI signal was analyzed to generate an EC₅₀ and EC₉₀ (FIG. 9E). Data are representative of two independent experiments.
The GPRC5D (i.e., GC5B680) and BCMA binding arms were assessed for cross-reactivity to cynomolgus monkey as part of the BGCB463 molecule, which uses the identical binding arms as BGCB491. Cross reactivity to cynomolgus monkeys was profiled for both target-binding scFv arms using FACS-based cell binding at 37° C. for 1 hour with K562 stably expressing human or cynomolgus monkey GPRC5D or BCMA. The cell-based EC₅₀ value for the GC5B680 scFv arm was approximately 30 nM against human GPRC5D-expressing cells and about 10-fold weaker (approximately 400 nM) on cynomolgus monkey GPRC5D-expressing cells.

Assay [5] addresses T5, human GPRC5D (G-protein coupled receptor family C group 5 member D) on cells (human, UniProt Q9NZD1 1-345).
T5 construct: Target on H929 or MM.1R BCMA knockout cells, K562 cells expressing human GPRC5D and HEK293 cells of the cell microarray
T5 sequence (Q9NZD1 whole entry): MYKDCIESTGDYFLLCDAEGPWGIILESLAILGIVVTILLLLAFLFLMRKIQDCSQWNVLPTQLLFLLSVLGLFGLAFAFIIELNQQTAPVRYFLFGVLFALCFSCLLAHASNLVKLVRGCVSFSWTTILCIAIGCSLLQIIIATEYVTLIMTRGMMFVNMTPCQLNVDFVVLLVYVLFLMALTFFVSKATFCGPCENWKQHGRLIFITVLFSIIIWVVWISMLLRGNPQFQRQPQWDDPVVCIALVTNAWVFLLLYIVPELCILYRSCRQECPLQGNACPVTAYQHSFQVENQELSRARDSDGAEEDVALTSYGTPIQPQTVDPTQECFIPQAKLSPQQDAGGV
The experiment in a line: flow cytometry, MM.1R BCMA KO cells, 1 h 37C; Run 2.

For assay [6], the target named is T3, human CD3 (CD3ε of the TCR/CD3 complex) …. Nature of the assay: flow cytometry, human pan T cells, Donor 3, 1 h 37C; Run 4. The method, then:
as §1, §2

In assay [7] the target is T6, human BCMA (B cell maturation antigen, TNFRSF17) on cells (human, UniProt Q02223 1-184).
T6 construct: whole, on cells; Target on H929 or MM.1R GPRC5D knockout cells, K562 cells expressing human BCMA, HEK293 cells of the cell microarray, and BCMA-only lymphoma lines; also called CD269; surface BCMA
T6 sequence (looked up): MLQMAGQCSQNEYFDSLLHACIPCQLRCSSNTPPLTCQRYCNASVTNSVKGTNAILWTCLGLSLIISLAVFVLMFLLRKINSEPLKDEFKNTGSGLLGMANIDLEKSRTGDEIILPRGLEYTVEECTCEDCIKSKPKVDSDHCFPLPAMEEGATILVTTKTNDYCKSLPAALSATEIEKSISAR
The experiment in a line: flow cytometry on H929 GPRC5D KO cells (BCMA arm), 1 hr 37 C, AF647 secondary detection. The method, then:
FIGS. 2A-2D. BGCB463 (circles) or negative control B23B251 (triangles) were all incubated with H929 wild type (WT) (FIG. 2A), H929-GPRC5D knock out (KO) (FIG. 2B), H929-BCMA KO (FIG. 2C), and H929-GPRC5D/BCMA KO (FIG. 2D) cells for 1 hr at 37° C. at a starting concentration of 2 μM. After secondary detection with AF647-labeled material, the MFI signal was analyzed to generate an EC₅₀ and EC₉₀. Curves are representative of five independent experiments. EC₅₀ or EC₉₀ values are averages of these.
First, FACS-based binding for GPRC5D and BCMA binding arms of the trispecific molecule was determined by measuring the effective concentration (EC) range from a dose-response curve using a 4-parameter fit at 37° C. for 1 hr. This was assessed using an H929 suite of cells (WT, GPRC5D-KO, BCMA-KO, and GPRC5D/BCMA KO), and a similar MM.1R suite. Cell based EC₅₀ is approximately 13 nM for WT H929 (FIGS. 2A-2D, Table 7) and 2.4 nM for WT MM.1R (FIGS. 3A-3D, Table 8). A clear avidity affect is observed as EC₅₀ and Bmax are both reduced in GPRC5D-KO and BCMA-KO lines which test monovalent binding of target binding arms (Table 7). Next, cell-based EC₅₀ was determined for the CD3-binding Fab arm using purified Pan T cells from three random donors. […] Next, dose responsive binding was assessed at 4° C. to remove any potential biological effects. […]

Assay [8] has as its target T3, human CD3 (CD3ε of the TCR/CD3 complex) …. Nature of the assay: flow cytometry, human pan T cells, Donor 1, 1 h 37C; average of runs. The method, then:
as §1, §2

Assay [9] shares this target. Nature of the assay: flow cytometry on Pan T cells, donor D329335, 1 hr at 37 C, AF647 secondary detection. The protocol:
as §1, §2

B1: BGCB491 (other)
heavy: QVQLQQSGPRLVRPSQTLSLTCAISGDSVFNNNAAWSWIRQSPSRGLEWLGRTYYRSKWLYDYAVSVKSRITVNPDTSRNQFTLQLNSVTPEDTALYYCARGYSSSFDYWGQGTLVTVSSASTKGPSVFPLAPSSKSTSGGTAALGCLVKDYFPEPVTVSWNSGALTSGVHTFPAVLQSSGLYSLSSVVTVPSSSLGTQTYICNVNHKPSNTKVDKKVEPKSCDKTHTCPPCPAPEAAGGPSVFLFPPKPKDTLMISRTPEVTCVVVSVSHEDPEVKFNWYVDGVEVHNAKTKPREEQYNSTYRVVSVLTVLHQDWLNGKEYKCKVSNKALPAPIEKTISKAKGQPREPQVYTLPPSREEMTKNQVSLSCAVKGFYPSDIAVEWESNGQPENNYKTTPPVLDSDGSFFLVSKLTVDKSRWQQGNVFSCSVMHEALHNRFTQKSLSLSPGKGGGGSGGGGSGGGGSGGGGS[letters of about 100 residues not shown]QFPHTFGQGTKLEIKGGSEGKSSGSGSESKSTGGSQVTLKESGPVLVKPTETLTLTCTVSGFSLTNIRMSVSWIRQPPGKALEWLAHIFSNDEKSYSTSLKSRLTISRDTSKSQVVLTLTNVDPVDTATYYCARMRLPYGMDVWGQGTTVTVSS
light: QSALTQPASVSGSPGQSITISCTGTSSNIGTYKFVSWYQQHPDKAPKVLLYEVSKRPSGVSSRFSGSKSGNTASLTISGLQAEDQADYHCVSYAGSGTLLFGGGTKLTVLGQPKAAPSVTLFPPSSEELQANKATLVCLISDFYPGAVTVAWKADSSPVKAGVETTTPSKQSNNKYAASSYLSLTPEQWKSHRSYSCQVTHEGSTVEKTVAPTECS
chain: EIVLTQSPGTLSLSPGERATLSCRASQSISSSFLTWYQQKPGQAPRLLIYGASSRATGIPDRFSGGGSGTDFTLTISRLEPEDFAVYYCQHYGSSPMYTFGQGTKLEIKGGSEGKSSGSGSESKSTGGS[letters of about 100 residues not shown]DEGYSSGHYYGMDVWGQGTTVTVSSEPKSSDKTHTCPPCPAPEAAGGPSVFLFPPKPKDTLMISRTPEVTCVVVSVSHEDPEVKFNWYVDGVEVHNAKTKPREEQYNSTYRVVSVLTVLHQDWLNGKEYKCKVSNKALPAPIEKTISKAKGQPREPQVYTLPPSREEMTKNQVSLWCLVKGFYPSDIAVEWESNGQPENNYKTTPPVLDSDGSFFLYSKLTVDKSRWQQGNVFSCSVMHEALHNHYTQKSLSLSPGK
notes: Trispecific IgG1 antibody (L234A, L235A, D265S); Heavy chain 1 = anti-CD3 (CD3B376) Fab heavy chain, hole and RF mutations, with C-terminal anti-GPRC5D scFv (GC5B680); Heavy chain 2 = anti-BCMA scFv (BCMB519) - Fc knob; also called JNJ-79635322; BCMA×GPRC5D×CD3 trispecific mAb
Consider B1, for which the Kd in [1] amounted to 0.0251 µM; in assay [2], 0.000175 µM.

B2: BGCB463 (other)
heavy: QVQLQQSGPRLVRPSQTLSLTCAISGDSVFNNNAAWSWIRQSPSRGLEWLGRTYYRSKWLYDYAVSVKSRITVNPDTSRNQFTLQLNSVTPEDTALYYCARGYSSSFDYWGQGTLVTVSSASTKGPSVFPLAPSSKSTSGGTAALGCLVKDYFPEPVTVSWNSGALTSGVHTFPAVLQSSGLYSLSSVVTVPSSSLGTQTYICNVNHKPSNTKVDKKVEPKSCDKTHTCPPCPAPEAAGGPSVFLFPPKPKDTLMISRTPEVTCVVVSVSHEDPEVKFNWYVDGVEVHNAKTKPREEQYNSTYRVVSVLTVLHQDWLNGKEYKCKVSNKALPAPIEKTISKAKGQPREPQVYTLPPSREEMTKNQVSLSCAVKGFYPSDIAVEWESNGQPENNYKTTPPVLDSDGSFFLVSKLTVDKSRWQQGNVFSCSVMHEALHNRFTQKSLSLSPGK
light: B1 light
chain: [letters of about 100 residues not shown]QFPHTFGQGTKLEIKGGSEGKSSGSGSESKSTGGSQVTLKESGPVLVKPTETLTLTCTVSGFSLTNIRMSVSWIRQPPGKALEWLAHIFSNDEKSYSTSLKSRLTISRDTSKSQVVLTLTNVDPVDTATYYCARMRLPYGMDVWGQGTTVTVSSEPKSSDKTHTCPPCPAPEAAGGPSVFLFPPKPKDTLMISRTPEVTCVVVSVSHEDPEVKFNWYVDGVEVHNAKTKPREEQYNSTYRVVSVLTVLHQDWLNGKEYKCKVSNKALPAPIEKTISKAKGQPREPQVYTLPPSREEMTKNQVSLWCLVKGFYPSDIAVEWESNGQPENNYKTTPPVLDSDGSFFLYSKLTVDKSRWQQGNVFSCSVMHEALHNHYTQKSLSLSPGKGGSEGKSSGSGSESKSTGGSEIVLTQSPGTLSLSPGERATLSCRASQSISSSFLTWYQQKPGQAPRLLIYGASSRATGIPDRFSGGGSGTDFTLTISRLEPEDFAVYYCQHYGSSPMYTFGQGTKLEIKGGSEGKSSGSGSESKSTGGS[letters of about 100 residues not shown]DEGYSSGHYYGMDVWGQGTTVTVSS
notes: Trispecific IgG1 antibody (L234A, L235A, D265S); Heavy chain 1 = anti-CD3 (CD3B376) Fab heavy chain with hole and RF mutations; also called BGCB463.003; BGCB463.004
As for B2, the EC50 in [3] is 0.05 to 0.1 µM; in assay [4] it was ~0.4 µM; in [5] it was 0.0166 µM; in assay [6] it was 0.255 µM; in assay [8] it was 0.344 µM. Also, the 50% effective concentration (EC50 (read off the curve)) in [7] and in assay [9] was ~0.1 µM each time.
